{
  "source": "the RNAGym collection of RNA variant scans (doi:10.1073/pnas.2313332121)",
  "parents": {"B1": {"name": "TPR 5TU (parent)", "chain": "GGAUCUUCUCGAUCUAACAAAAAAGACAAAUCUGCCACAAAGCUUGAGAGCAUCUUCGGAUGCAGAGGCGGCAGCCUUCGGUGGCGCGAUAGCGCCAACGUUCUCAACUAUGACACGCAAAACGCGUGCUCCGUUGAAUGGAGUUUAUCAUG"}},
  "note": "Variants at the floor of the assay are shown more often than the library holds them.",
  "data": [
    {"variants_of": "B1", "experiment": "polymerase ribozyme fitness, log enrichment relative to wild type (log ratio); higher = more active; in vitro selection for triplet polymerase activity", "summary_of_the_method": "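In triplicate, a single round of in vitro selection was run on each mutant library, PCR-built and transcribed, covering one subunit of a heterodimeric triplet polymerase ribozyme. Frozen incubation at −7 °C followed annealing with a biotinylated primer, partner subunit and triplets, and extended constructs were then gel-excised, streptavidin-captured and taken through RT-PCR. Fitness is the logarithm of genotype enrichment over wild-type enrichment, from inverse-variance-weighted replicate averages of Illumina-sequenced inputs and outputs. […] only genotypes with ≥10 input reads and ≥1 read per output were kept.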", "values": [
      {"variant": "A12G A28C G71A G94U C95A A110C G124U C132G", "polymerase ribozyme fitness (log ratio)": "≤ -4.2"},
      {"variant": "A12G A28U C93U G136A G141C", "polymerase ribozyme fitness (log ratio)": "≤ -4.2"},
      {"variant": "A12G A28U G48C G84C", "polymerase ribozyme fitness (log ratio)": "≤ -4.2"},
      {"variant": "A12G A28U U109G A137C U139G U148G", "polymerase ribozyme fitness (log ratio)": "≤ -4.2"},
      {"variant": "A12G A29C A40G A64C G68A C79A C87A U101A C103U U130G", "polymerase ribozyme fitness (log ratio)": "≤ -4.2"},
      {"variant": "A12G A29C C75G A122U A150C", "polymerase ribozyme fitness (log ratio)": "≤ -4.2"},
      {"variant": "A12G A29G C95U U104A G141A", "polymerase ribozyme fitness (log ratio)": "≤ -4.2"},
      {"variant": "A12G A30C U45A C51G G74C U78G C87A G143A U148A", "polymerase ribozyme fitness (log ratio)": "≤ -4.2"},
      {"variant": "A12G A30G C32U C85A A142U", "polymerase ribozyme fitness (log ratio)": "≤ -4.2"},
      {"variant": "A12G A37C A49U C85U A98G G133C", "polymerase ribozyme fitness (log ratio)": "≤ -4.2"},
      {"variant": "A12G A37C C87U G92A A119U G136A", "polymerase ribozyme fitness (log ratio)": -0.359},
      {"variant": "A12G A40G U44A U45A C93G C118U U139A U146A", "polymerase ribozyme fitness (log ratio)": "≤ -4.2"},
      {"variant": "A12G A40U G50U C72U U102G C116U", "polymerase ribozyme fitness (log ratio)": "≤ -4.2"},
      {"variant": "A12G A40U G65A G88C C132U G143U", "polymerase ribozyme fitness (log ratio)": "≤ -4.2"},
      {"variant": "A12G A41C A66G C79U G86C C103A C105A A107G", "polymerase ribozyme fitness (log ratio)": "≤ -4.2"},
      {"variant": "A12G A41G U53A G58A C95U G140U U146G", "polymerase ribozyme fitness (log ratio)": "≤ -4.2"},
      {"variant": "A12G A47G C76G C85G A120U G143A A150C", "polymerase ribozyme fitness (log ratio)": "≤ -4.2"},
      {"variant": "A12G A49C G50A C69G", "polymerase ribozyme fitness (log ratio)": "≤ -4.2"},
      {"variant": "A12G A52C G68C U102C A120U C125U U144A", "polymerase ribozyme fitness (log ratio)": "≤ -4.2"},
      {"variant": "A12G A52G U56A A64U G84C U111A A115G", "polymerase ribozyme fitness (log ratio)": "≤ -4.2"},
      {"variant": "A12G A52U U53A G59A G71A G81U C87U", "polymerase ribozyme fitness (log ratio)": "≤ -4.2"},
      {"variant": "A12G A52U U104G C125U", "polymerase ribozyme fitness (log ratio)": "≤ -4.2"},
      {"variant": "A12G A60U G92A U127A A142U", "polymerase ribozyme fitness (log ratio)": "≤ -4.2"},
      {"variant": "A12G A89C C96G", "polymerase ribozyme fitness (log ratio)": -1.66},
      {"variant": "A12G A89G", "polymerase ribozyme fitness (log ratio)": -1.16},
      {"variant": "A12G A91U C105G A106U", "polymerase ribozyme fitness (log ratio)": -4.11},
      {"variant": "A12G C14A C38U C43A U56A C85U C103G", "polymerase ribozyme fitness (log ratio)": "≤ -4.2"},
      {"variant": "A12G C14G A17G A21C G34C C75A C96A A115U U144A", "polymerase ribozyme fitness (log ratio)": "≤ -4.2"},
      {"variant": "A12G C14G A17G G83U C95A C99A A120G U127G C149U", "polymerase ribozyme fitness (log ratio)": "≤ -4.2"},
      {"variant": "A12G C14U A17G A47C C87G C93G G143U", "polymerase ribozyme fitness (log ratio)": "≤ -4.2"},
      {"variant": "A12G C14U A26G G46A U82C", "polymerase ribozyme fitness (log ratio)": "≤ -4.2"},
      {"variant": "A12G C14U A30U", "polymerase ribozyme fitness (log ratio)": "≤ -4.2"},
      {"variant": "A12G C14U A60C U77C G83C G94U C108G C118U", "polymerase ribozyme fitness (log ratio)": "≤ -4.2"},
      {"variant": "A12G C14U C38U G42C A73U A91U A119C U134A U135C A137U", "polymerase ribozyme fitness (log ratio)": "≤ -4.2"},
      {"variant": "A12G C14U C85U C114A U151A", "polymerase ribozyme fitness (log ratio)": "≤ -4.2"},
      {"variant": "A12G C18G U56A U90A U101G C108G A119U U135C G136A", "polymerase ribozyme fitness (log ratio)": "≤ -4.2"},
      {"variant": "A12G C18U A19C C36A G59C C69U U78G U134C G140U A147C", "polymerase ribozyme fitness (log ratio)": "≤ -4.2"},
      {"variant": "A12G C18U A22G G67U G86C C105G A115G", "polymerase ribozyme fitness (log ratio)": "≤ -4.2"},
      {"variant": "A12G C18U G50C G74U U90G A122G G136C", "polymerase ribozyme fitness (log ratio)": "≤ -4.2"},
      {"variant": "A12G C18U G84A U102C C105A A107G", "polymerase ribozyme fitness (log ratio)": "≤ -4.2"},
      {"variant": "A12G C27A A47C G81A C103U A122G", "polymerase ribozyme fitness (log ratio)": "≤ -4.2"},
      {"variant": "A12G C27A G94U C125G U146G", "polymerase ribozyme fitness (log ratio)": "≤ -4.2"},
      {"variant": "A12G C27A U31G C35G C85A A97C C99G C149A", "polymerase ribozyme fitness (log ratio)": "≤ -4.2"},
      {"variant": "A12G C32G C35G U55A C85U", "polymerase ribozyme fitness (log ratio)": "≤ -4.2"},
      {"variant": "A12G C32G C72A G92U A113C G141C A147G", "polymerase ribozyme fitness (log ratio)": "≤ -4.2"},
      {"variant": "A12G C32G U53A C87A A91C", "polymerase ribozyme fitness (log ratio)": "≤ -4.2"},
      {"variant": "A12G C32U C85A A137C", "polymerase ribozyme fitness (log ratio)": "≤ -4.2"},
      {"variant": "A12G C32U G83C U90G C103A", "polymerase ribozyme fitness (log ratio)": "≤ -4.2"},
      {"variant": "A12G C35A G65A C96A U111G", "polymerase ribozyme fitness (log ratio)": "≤ -4.2"},
      {"variant": "A12G C35U A60U G124C A147C", "polymerase ribozyme fitness (log ratio)": "≤ -4.2"},
      {"variant": "A12G C35U G83A", "polymerase ribozyme fitness (log ratio)": -0.598},
      {"variant": "A12G C36G A98U U127C", "polymerase ribozyme fitness (log ratio)": "≤ -4.2"},
      {"variant": "A12G C38G A52C G59U C85A C95U C116G", "polymerase ribozyme fitness (log ratio)": "≤ -4.2"},
      {"variant": "A12G C38U A52C U55A C57G C95G U111G C125U C129A G152A", "polymerase ribozyme fitness (log ratio)": "≤ -4.2"},
      {"variant": "A12G C63U U134A", "polymerase ribozyme fitness (log ratio)": -2.26},
      {"variant": "A12G C72G C87G U146G", "polymerase ribozyme fitness (log ratio)": "≤ -4.2"},
      {"variant": "A12G C79U C93G U130G", "polymerase ribozyme fitness (log ratio)": "≤ -4.2"},
      {"variant": "A12G C87A", "polymerase ribozyme fitness (log ratio)": "≤ -4.2"},
      {"variant": "A12G C93G", "polymerase ribozyme fitness (log ratio)": -2.99},
      {"variant": "A12G C93G A98G G141C", "polymerase ribozyme fitness (log ratio)": -2.52},
      {"variant": "A12G G25C C38G A49G U55A C63G G65C G117C U134C", "polymerase ribozyme fitness (log ratio)": "≤ -4.2"},
      {"variant": "A12G G25C G50C A52C U53A C54U U55C C57U C72A G140A G141C U145C", "polymerase ribozyme fitness (log ratio)": "≤ -4.2"},
      {"variant": "A12G G25U G50A C54A G71U G80A G84U U101G", "polymerase ribozyme fitness (log ratio)": "≤ -4.2"},
      {"variant": "A12G G34A G67A C103G A113C C118A", "polymerase ribozyme fitness (log ratio)": "≤ -4.2"},
      {"variant": "A12G G34U A39U C85G C116A", "polymerase ribozyme fitness (log ratio)": "≤ -4.2"},
      {"variant": "A12G G34U A49C G65C G68U C87U C125A", "polymerase ribozyme fitness (log ratio)": "≤ -4.2"},
      {"variant": "A12G G42A G62A U101C C105G U134G", "polymerase ribozyme fitness (log ratio)": "≤ -4.2"},
      {"variant": "A12G G48A C54U C85G G117U", "polymerase ribozyme fitness (log ratio)": -2.26},
      {"variant": "A12G G48A G62A G84A G143C", "polymerase ribozyme fitness (log ratio)": "≤ -4.2"},
      {"variant": "A12G G50A G70U C95G C116U A142C", "polymerase ribozyme fitness (log ratio)": "≤ -4.2"},
      {"variant": "A12G G50U C51G G83A U90A G92C A98U U109A", "polymerase ribozyme fitness (log ratio)": "≤ -4.2"},
      {"variant": "A12G G50U G62C A115U G136U", "polymerase ribozyme fitness (log ratio)": "≤ -4.2"},
      {"variant": "A12G G70C A113C U144C A147C", "polymerase ribozyme fitness (log ratio)": "≤ -4.2"},
      {"variant": "A12G G80C C95U C108U A137C", "polymerase ribozyme fitness (log ratio)": "≤ -4.2"},
      {"variant": "A12G G81A C87G C95G A97U A115U C125A", "polymerase ribozyme fitness (log ratio)": "≤ -4.2"},
      {"variant": "A12G G81U G92C U135G", "polymerase ribozyme fitness (log ratio)": "≤ -4.2"},
      {"variant": "A12G G83A C99G C103G C108G", "polymerase ribozyme fitness (log ratio)": "≤ -4.2"},
      {"variant": "A12G G83A G133C G143A U146G", "polymerase ribozyme fitness (log ratio)": -3.34},
      {"variant": "A12G G84A", "polymerase ribozyme fitness (log ratio)": -0.68},
      {"variant": "A12G U13G A121G", "polymerase ribozyme fitness (log ratio)": -2.27},
      {"variant": "A12G U15A A26C U44A C96U", "polymerase ribozyme fitness (log ratio)": "≤ -4.2"},
      {"variant": "A12G U31A A52G C87G G94A U151G", "polymerase ribozyme fitness (log ratio)": "≤ -4.2"},
      {"variant": "A12G U31A U55A U77A C93U G100A U102G G140C", "polymerase ribozyme fitness (log ratio)": "≤ -4.2"},
      {"variant": "A12G U31C G59U G84U G117C G141C", "polymerase ribozyme fitness (log ratio)": "≤ -4.2"}
    ]}
  ]
}
